Assay results reported in ChEMBL document CHEMBL5308541, “MAIP: An Open-Source Tool to Enrich High-Throughput Screening Output and Identify Novel, Druglike Molecules with Antimalarial Activity” (ACS Med Chem Lett, 2023).
The campaign covered roughly 150,000 compounds. About 540 (0.36%) showed an effect of 50% or more. Some of the results follow.

Test system: Plasmodium falciparum
Test: Primary screen in NF54 nanoGlo assay, in single point, at 2uM, 72h; a lower Z score goes with more inhibition
Format: functional, Erythrocyte
Details: timepoint 72 hour

| Compound | % Inhibition | Z score |
| --- | --- | --- |
| CN1CCN(CC2(C)CCN(C(=O)c3ccc(-c4cnco4)cc3)CC2)CC1 | -7% | 1.14 |
| COc1cc2c(cc1OC)[C@@H](NC(=O)c1cccc(Nc3ncccn3)c1)CC2 | -5% | 0.69 |
| CC(C)[C@@H]1NC(=O)[C@H](C)NC(=O)[C@H]([C@@H](C)O)NC(=O)c2cc(on2)CN(C(=O)C2CCCC2)CCNC1=O | -8% | 1.33 |
| Oc1nc2ccccc2cc1CN[C@H]1CCCN(c2ccncn2)C1 | -10% | 1.45 |
| Cc1[nH]c2ccccc2c1-c1cc(-c2ccccc2)nc(-c2ccccc2)c1 | -8% | 1.44 |
| CCN1C(=O)C[C@@H](CNCc2ccc3cn[nH]c3c2)[C@@H]1c1nccn1C | 4% | -0.57 |
| Cc1ccccc1[C@@]1(CC(=O)N(Cc2c(C)nn(C)c2C)C(C)C)CC(=O)N(CCN(C)C)C1=O | -12% | 2.08 |
| COc1cc2nc(NCC3(N4CCN(C)CC4)CCCC3)cc(C)c2cc1OC | 55% | -8.35 |
| Cc1cc(C(=O)NC2CCN(c3nc(-c4cccs4)nc4ccccc34)CC2)on1 | -1% | 0.26 |
| CCN1CCNC(=O)[C@@H]1CC(=O)N1CC(Oc2ccccc2Cl)C1 | -3% | 0.57 |
| Cc1nccn1-c1ccccc1CNC1CCC2(CCNCC2)CC1 | 10% | -2.05 |
| c1ccc(CCCc2noc(-c3ccc(NC4CCNCC4)nc3)n2)cc1 | 1% | -0.19 |
| c1ccc2c(c1)CCO[C@H]2CNC1CCN(c2ccc(-c3cc[nH]n3)cc2)CC1 | -7% | 1.22 |
| Nc1nccc(-c2cccc(C(=O)N3CCN(C4CCCCC4)CC3)c2)n1 | -5% | 0.94 |
| CCc1csc(-n2cc(C(=O)NC3CCC4(CCOCC4)CC3)cn2)n1 | -1% | 0.13 |
| CN1CCN(C2(CNC(=O)c3ccc(-c4cccc(F)c4)cc3)CCCCC2)CC1 | 3% | -0.54 |
| COc1ccc(C2CC2C(=O)Nc2cnccc2N2CCN(C)CC2)cc1 (stereo not given) | 4% | -0.74 |
| CC1(N2CCC2)CCC(NC[C@H](O)c2cccc(Cl)c2)CC1 (stereo not given in full) | 15% | -2.67 |
| Cn1cc(C(=O)Nc2ccc(Oc3ccnc4cc(Cl)ccc34)c(F)c2)[nH]c1=O | 1% | -0.19 |
| Cc1ccc(-c2nnc(Nc3ccccc3)c3ccccc23)cc1CN1C(=O)c2ccccc2C1=O | 32% | -6.95 |
| Cc1cc(CNCc2cc3ccccc3[nH]2)c(C)c(CN2CCN(C)CC2)c1 | 21% | -3.58 |
| C[C@@H](CCOc1ccccc1)C(=O)Nc1ccc(-n2cc(CO)nn2)cc1 | -2% | 0.38 |
| CC1CCCCC1OCC(=O)N1CCNC(=O)C1c1cccs1 (stereo not given) | -12% | 1.79 |
| c1cc(-c2noc(C34CCCN(CCC3)C4)n2)cc(-n2ccnc2)c1 | 9% | -1.87 |
| Cc1ccc(Nc2ccccc2C(=O)N2CCN([C@H]3CCNC3)CC2)cc1 | -4% | 0.76 |

| Compound | % Inhibition | Z score |
| --- | --- | --- |
| O=S(=O)(Oc1ccc(-c2nc3cc(Cl)ccc3[nH]2)cc1)c1ccc(Cl)cc1 | -4% | 0.65 |
| OC[C@H]1CCCN(c2cc(NCCc3csc4ccccc34)ncn2)C1 | 3% | -0.55 |
| OCCNc1nc2ccccc2n1Cc1csc(C2CCCC2)n1 | -12% | 2.13 |
| Nc1nc2c(c(NCC3=CCCCC3)n1)CCN([C@H]1CCCNC1)CC2 | 13% | -2.3 |
| CN(CCCc1nccn1C)C[C@]1(O)CCCNC1 | -3% | 0.53 |
| O=C(CCc1n[nH]c2c1CCCC2)NC1CCN(S(=O)(=O)c2ccccc2)CC1 | -6% | 1.18 |
| O=C(Nc1ccccc1Oc1cccnc1)[C@@H]1CCCN1C(=O)CC1CC1 | 4% | -0.75 |
| CCN1CCO[C@@H](CNc2ncnc3[nH]ccc23)[C@@H]1c1nccn1C | 3% | -0.57 |
| COCCCn1cnc(-c2ccccc2)c1-c1cc2c(cc1OC)OCCCO2 | 13% | -2.73 |
| COc1ccccc1-c1cc(C(=O)NC2CCN(c3cc(-c4cccs4)[nH]n3)CC2)[nH]n1 | 3% | -0.48 |
| O=C(NCc1n[nH]c2ncccc12)c1ccc2cccc(F)c2n1 | -9% | 1.64 |
| Cn1cc(CCN2CCC(C(=O)NCc3ccc(F)cc3Cl)CC2)c2cccnc21 | 6% | -1.05 |
| O=S1(=O)CC[C@H](NC2CCN(c3ncnc4[nH]ccc34)CC2)C1 | -3% | 0.45 |
| Cc1ccc(-c2cc(C(=O)NC[C@H]3CC4(CCNCC4)CO3)[nH]n2)cc1 | 1% | -0.25 |
| CC(C)CCNC[C@H]1O[C@H](Cc2cc(CN3CCN(c4ccccc4)CC3)on2)CC[C@@H]1O | -1% | 0.11 |
| COc1ccc(Nc2ncnc3onc(C)c23)cc1OC(C)C | 10% | -1.71 |
| O=c1cc(C2CCN(c3nccc(N4CCC(O)CC4)n3)CC2)cc[nH]1 | 0% | 0.03 |
| CCOc1ccccc1Nc1cc(C)ncn1 | -8% | 1.21 |
| C[C@@H](Cc1cnccn1)Nc1cc(-c2ccncc2)nc2ccnn12 | -12% | 2.06 |
| Cc1ccc(CN2CCC(CNc3cc(-n4nc(C)cc4N)ncn3)CC2)cc1 | 4% | -0.68 |
| O=C(CCCn1ccnc1)N1CCc2[nH]c(-c3ccc(Cl)cc3)nc2C1 | -6% | 1.04 |
| C[C@@H](CO)Nc1ccc(-c2cnc(N3CCCC(O)C3)nc2)cn1 (stereo not given in full) | -7% | 1.31 |
| CN1CCN([C@H](c2ccccc2)c2nc(-c3ccc(Oc4ccc(F)cc4)nc3)no2)CC1 | -8% | 1.4 |
| Cc1cccc(CN2CCC[C@@]3(CCN(c4nc(N)nc5[nH]ncc45)C3)C2=O)c1 | -4% | 0.73 |
| Cc1nc(C)c(C)c(N2CC(OCc3ccccc3)C2)n1 | -11% | 1.9 |
